Test results reported in PubChem BioAssay AID504832 (National Center for Advancing Translational Sciences (NCATS), 2011).
Hit rate of the full screen: of about 310,000 compounds, about 18,000 (5.8%) were called active. This list was built around the results that the source calls inconclusive (neither active nor inactive); the mix of calls is not that of the screen. Calls come from the whole dose curve; as a rule, active = well fitted inhibition curve with a large enough effect; inconclusive = small, poorly fitted or top-dose-only effect, or another doubt; inactive = no such curve, though single readings can be large or run the other way. Potencies of inconclusive entries are left out as doubtful fits.

test: Primary qHTS for delayed death inhibitors of the malarial parasite plastid, 48 hour incubation; details: P. falciparum luciferase growth in erythrocytes; series mostly up to 28.7 µM
How it was run: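 Firefly luciferase activity from engineered P. falciparum reports growth; inhibitors lower the luminescent signal. Cultures contained 2% hematocrit erythrocytes at 0.1% final parasitemia.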
Potency is the fitted concentration of half-maximal effect; tags give direction and shape of the fitted curve.

Question: Which Potency does the source give for `Cc1cc(C(=O)CSc2nnc(-c3ccccc3)n2Cc2ccc3c(c2)OCO3)c(C)n1C` here?
Answer: Its Potency is inconclusive [inhibitor, single point].

Question: For `Oc1ccc(Nc2nc(NCC3CCCO3)c3ccccc3n2)cc1` (stereo unspecified), which Potency is on record?
Answer: Its Potency is active: 1.65 µM.

Question: Which Potency does the source give for `O=S(=O)(NCC1(N2CCOCC2)CCCCC1)c1ccccc1Cl` here?
Answer: Its Potency is inconclusive [inhibitor, partial curve, poor fit].

Question: With `CCOc1ccc(/C=N/n2c(C)nc3ccccc3c2=O)cc1` as the molecule, how does the Potency read?
Answer: The Potency was “inactive”.

Question: With `C=CCNC(=O)c1oc2ccc(S(=O)(=O)N(CC)CC)cc2c1C` as the molecule, how does the Potency read?
Answer: The Potency was inconclusive [inhibitor, partial curve, poor fit].

Question: Which Potency does the source give for `c1ccc2c(c1)OCC(c1nnc3sc(-c4cnccn4)nn13)O2` (stereo unspecified) here?
Answer: Its Potency is “inactive”.

Question: Which Potency does the source give for `COc1cccc(C2c3[nH]c4ccccc4c3C[C@H]3C(=O)N(c4ccccc4C(=O)N4CCCC4C(=O)O)C(=O)N23)c1` (stereo partly specified) here?
Answer: The Potency was inconclusive [inhibitor, single point].

Question: For `Cc1cccc(NC(=O)CNC(=O)CCc2nc3sc4c(c3c(=O)[nH]2)CCCC4)c1C`, which Potency is on record?
Answer: The Potency was inconclusive [inhibitor, single point].

Question: Which Potency does the source give for `CCCCn1c(N)c(N(CC(C)C)C(=O)C2CCCN(C(=O)c3ccc(Cl)cc3)C2)c(=O)[nH]c1=O` (stereo unspecified) here?
Answer: The Potency was inconclusive [inhibitor, partial curve].

Question: With `Cc1cc(C(=O)OCC(=O)Nc2ccc(F)cc2)c(C)n1C1CC1` as the molecule, how does the Potency read?
Answer: The Potency was inconclusive [inhibitor, single point].

Question: With `O=C(CSc1ccccc1)Nc1ccc(C(=O)Nc2ccc(O)cc2)cc1` as the molecule, how does the Potency read?
Answer: Its Potency is “inactive”.

Question: For `CC12CCC(=O)N1C(C(=O)Nc1ccc(F)c(F)c1F)CS2` (stereo unspecified), which Potency is on record?
Answer: The Potency was inconclusive [inhibitor, single point].

Question: For `O=C(COC(=O)c1cc([N+](=O)[O-])ccc1NCc1ccccc1Cl)NCC(F)(F)F`, which Potency is on record?
Answer: Its Potency is inconclusive [inhibitor, single point].

Question: For `O=C(C[n+]1cccc2ccccc21)c1ccc(NC(=O)c2ccccc2)cc1`, which Potency is on record?
Answer: The Potency was active: 2.08 µM.

Question: For `OC(COc1ccc2ccccc2c1Cl)CN1CCOCC1` (stereo unspecified), which Potency is on record?
Answer: The Potency was “inactive”.

Question: For `COc1ccccc1N(Cc1cc(=O)[nH]c2ccccc12)C(=O)c1ccc([N+](=O)[O-])cc1`, which Potency is on record?
Answer: The Potency was inconclusive [inhibitor, full curve, poor fit].

Question: With `O=C1CCC(=O)N1CN(C(=O)c1ccco1)c1ccc(Cl)c(Cl)c1` as the molecule, how does the Potency read?
Answer: The Potency was “inactive”.

Question: For `Cc1nc(C)c(NC(=O)N2CCc3ccccc32)cc1NC(=O)N1CCc2ccccc21`, which Potency is on record?
Answer: The Potency was inconclusive [inhibitor, single point].

Question: With `COCCOc1ccc(C(F)(F)F)cc1NC(=O)CN1C(=O)NC(C)(c2ccc3c(c2)OCO3)C1=O` (stereo unspecified) as the molecule, how does the Potency read?
Answer: The Potency was inconclusive [inhibitor, single point].

Question: For `CC(C)NC(=O)NCCCCCCS(C)=O` (stereo unspecified), which Potency is on record?
Answer: The Potency was inconclusive [inhibitor, partial curve, poor fit].

Question: Which Potency does the source give for `CCCOc1ccc(CSC(=N)N)cc1C(=O)OC` here?
Answer: Its Potency is inconclusive [inhibitor, partial curve, poor fit].

Question: Which Potency does the source give for `Cc1nnsc1NC(=O)OCC(C)(C)C` here?
Answer: Its Potency is “inactive”.

Question: For `CN(C)S(=O)(=O)c1cccc(C(=O)Nc2ccc3c(c2)CCC3)c1`, which Potency is on record?
Answer: Its Potency is “inactive”.

Question: Which Potency does the source give for `Cc1c(Cl)cccc1-n1c(SCC(=O)N2CCC(C(=O)O)CC2)nc2ccccc2c1=O` here?
Answer: Its Potency is inconclusive [inhibitor, partial curve, poor fit].

Question: Which Potency does the source give for `O=C(COC(=O)c1ccc(S(=O)(=O)NCc2ccco2)cc1)c1ccccc1` here?
Answer: The Potency was “inactive”.

Question: Which Potency does the source give for `CC(=O)NCCn1c(SCc2ccccc2C)nc2ccccc2c1=O` here?
Answer: The Potency was inconclusive [inhibitor, partial curve].

Question: Which Potency does the source give for `CCC1SC2=NC(C)=C(C(=O)OCC(C)C)C(/C=C/c3ccccc3OC)N2C1=O` (stereo unspecified) here?
Answer: The Potency was inconclusive [inhibitor, full curve, poor fit].

Question: For `Cc1nc(CN2CCN(S(=O)(=O)c3c(Cl)cc(Br)cc3Cl)CC2)cs1`, which Potency is on record?
Answer: Its Potency is inconclusive [inhibitor, single point].

Question: With `CC12CCC(C(=O)N(CCC#N)CCC#N)(CC1=O)C2(C)C` (stereo unspecified) as the molecule, how does the Potency read?
Answer: The Potency was inconclusive [inhibitor, partial curve, poor fit].

Question: With `O=C(N/N=C/c1ccc(O)c([N+](=O)[O-])c1)C1CC1(c1ccccc1)c1ccccc1` (stereo unspecified) as the molecule, how does the Potency read?
Answer: Its Potency is inconclusive [inhibitor, single point].

Question: With `Cc1ccc(C)c(S(=O)(=O)N2CCCC2CNC(=O)C(=O)NCc2ccccc2C)c1` (stereo unspecified) as the molecule, how does the Potency read?
Answer: The Potency was inconclusive [inhibitor, partial curve].

Question: Which Potency does the source give for `O=C1S/C(=C\c2ccc(N3CCOCC3)o2)C(=O)N1Cc1ccc(F)cc1` here?
Answer: The Potency was inconclusive [inhibitor, single point].

Question: With `Cc1ccc(C(=O)CN2/C(=C(\O)c3ccccc3)C(=O)c3ccccc3S2(=O)=O)c(C)c1` as the molecule, how does the Potency read?
Answer: Its Potency is inconclusive [inhibitor, partial curve].

Question: Which Potency does the source give for `O=C1C2CCCN2C(c2ccccc2)N1c1ccc(Cl)cc1` (stereo unspecified) here?
Answer: Its Potency is “inactive”.

Question: For `c1ccc(CCn2c(SCc3ccccc3)nnc2-c2ccncc2)cc1`, which Potency is on record?
Answer: The Potency was inconclusive [inhibitor, partial curve, poor fit].

Question: For `O=C1[C@@H]2Cc3c([nH]c4ccccc34)C(c3ccc(Cl)cc3)N2C(=O)CN1CCO` (stereo partly specified), which Potency is on record?
Answer: Its Potency is inconclusive [inhibitor, single point].

Question: Which Potency does the source give for `Cc1ccc(CC(=O)NCc2ccc(Cl)cc2)cc1` here?
Answer: The Potency was “inactive”.

Question: For `COc1ccc(-c2cc(C)no2)cc1S(=O)(=O)N(C)c1cccc(C)c1`, which Potency is on record?
Answer: Its Potency is inconclusive [inhibitor, partial curve].

Question: Which Potency does the source give for `O=C(N/N=C/c1sc(N2CCOCC2)nc1-c1ccccc1)c1cccc(S(=O)(=O)N2CCCC2)c1` here?
Answer: Its Potency is inconclusive [inhibitor, single point].

Question: With `COc1ccc(NC(=O)c2ccc(NCCCN3CCOCC3)c([N+](=O)[O-])c2)cc1` as the molecule, how does the Potency read?
Answer: Its Potency is inconclusive [inhibitor, single point].

Question: For `Cc1c(C(=O)OCC(=O)c2ccc3c(c2)OCCO3)oc2ccccc12`, which Potency is on record?
Answer: The Potency was “inactive”.

Question: Which Potency does the source give for `CN(C(=O)c1ccco1)c1ccccc1C(=O)O` here?
Answer: The Potency was “inactive”.

Question: With `CCn1c(SCC(=O)Nc2cc(C)on2)nnc1-c1ccc(S(=O)(=O)N2CCCC2)cc1` as the molecule, how does the Potency read?
Answer: The Potency was inconclusive [inhibitor, single point].

Question: With `Cc1ccc(S(=O)(=O)N2CCC(=O)N(C(COCc3ccccc3)Cc3ccccc3)CC2)cc1` (stereo unspecified) as the molecule, how does the Potency read?
Answer: Its Potency is active: 10.4 µM.

Question: For `Cc1c(Cl)cccc1NC(=S)N(Cc1cccnc1)Cc1ccccc1Cl`, which Potency is on record?
Answer: Its Potency is inconclusive [inhibitor, partial curve].

Question: For `O=C(COc1ccc(S(=O)(=O)N2CCOCC2)cc1)NC1CCCCC1`, which Potency is on record?
Answer: Its Potency is inconclusive [inhibitor, single point].

Question: For `CCOC(=O)C(C)CC(C)C(=O)N1CCOCCOCCN(C(=O)C(C)CC(C)C(=O)OCC)CCOCC1` (stereo unspecified), which Potency is on record?
Answer: Its Potency is inconclusive [inhibitor, single point].

Question: With `Cc1snc(SCC(=O)N/N=C(\N)COc2ccc(F)cc2)c1C#N` as the molecule, how does the Potency read?
Answer: The Potency was inconclusive [inhibitor, partial curve].

Question: For `CCn1cc(C(=O)N2CCc3ccccc32)c(=O)c2cc(S(=O)(=O)N(C)C3CCCCC3)ccc21`, which Potency is on record?
Answer: The Potency was active: 11.7 µM.

Question: With `COC(=O)c1ccc(COC(=O)C23CC4CC(CC(O)(C4)C2)C3)o1` as the molecule, how does the Potency read?
Answer: Its Potency is inconclusive [inhibitor, single point].

Question: For `CCN1CCN(S(=O)(=O)c2c(C)cc(C)cc2C)CC1`, which Potency is on record?
Answer: Its Potency is “inactive”.

Question: Which Potency does the source give for `Cn1c(=O)c2c(nc(NCCOc3ccc(C(C)(C)C)cc3)n2C)n(C)c1=O` here?
Answer: The Potency was inconclusive [inhibitor, partial curve].

Question: With `CN1CCN(C(=O)c2ccccc2NC(=O)Cc2ccccc2)CC1` as the molecule, how does the Potency read?
Answer: The Potency was inconclusive [inhibitor, full curve, poor fit].

Question: For `Cc1cc(C)nc(SCc2nnc(SCc3ccccc3Cl)o2)n1`, which Potency is on record?
Answer: The Potency was inconclusive [inhibitor, single point].

Question: For `O=C(CCCCCNC(=O)c1ccccc1Br)N=Nc1c(O)[nH]c2ccccc12`, which Potency is on record?
Answer: The Potency was inconclusive [inhibitor, full curve].

Question: Which Potency does the source give for `O=C(NC1CCCCC1)N1CCN(c2ccc(Cl)cc2)CC1` here?
Answer: The Potency was inconclusive [inhibitor, partial curve, poor fit].

Question: For `O=C(N=C1SC2CS(=O)(=O)CC2N1c1ccc(Cl)c(Cl)c1)C1CCCO1` (stereo unspecified), which Potency is on record?
Answer: The Potency was “inactive”.

Question: With `Cc1ccc(NC(=O)c2cc(-c3cc(Cl)ccc3O)n[nH]2)cc1C` as the molecule, how does the Potency read?
Answer: Its Potency is active: 1.85 µM.

Question: Which Potency does the source give for `COc1ccc(N=c2oc3cc(O)ccc3cc2C(=O)NCC2CCCO2)c(OC)c1` (stereo unspecified) here?
Answer: Its Potency is inconclusive [inhibitor, partial curve, poor fit].

Question: For `Cc1ccccc1NC(=O)Cc1nc(COC(=O)c2ccc(Cl)c(S(N)(=O)=O)c2)cs1`, which Potency is on record?
Answer: Its Potency is inconclusive [inhibitor, single point].

Question: For `CC(C)C(=O)N1CCN(c2ccc(NC(=O)c3ccc([N+](=O)[O-])o3)cc2)CC1`, which Potency is on record?
Answer: The Potency was active: 4.65 µM.

Question: Which Potency does the source give for `COc1ccc(S(=O)(=O)N2CCC(NC(=O)c3cccnc3)CC2)cc1` here?
Answer: Its Potency is inconclusive [inhibitor, partial curve, poor fit].

Question: With `COCCNC(=O)/C(C#N)=C1\N=C(N)c2ccccc21` as the molecule, how does the Potency read?
Answer: Its Potency is “inactive”.

Question: With `O=C(c1cc(COc2ccc(F)cc2Cl)on1)N1CC[C@@H]2CCCC[C@H]2C1` as the molecule, how does the Potency read?
Answer: The Potency was “inactive”.

Question: For `CCCC(=O)Nc1nnc(-c2ccc3c(c2)OCO3)s1`, which Potency is on record?
Answer: The Potency was “inactive”.

Question: Which Potency does the source give for `Cc1ccc(-n2nnnc2-c2cnn(-c3ccc(F)cc3)c2C(F)(F)F)cc1` here?
Answer: The Potency was inconclusive [inhibitor, single point].
